This is one part of the list. Most values come without repeats; read them as rough.
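Note: cell number obtained by counting DAPI-stained nuclei in high-throughput microscope images with image analysis software, screen run in 1,536-well plates.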

This assay relates to WM1745. As to the kind of experiment: cell count relative to DMSO control; melanoma cells; higher = more viable cells. The following applies: library dose: low library concentration; 72 h.
As to `O=C(Nc1cc(C(F)(F)F)cc(C(F)(F)F)c1)c1cc(Cl)ccc1O` + NC1(c2ccc(-c3nc4ccn5c(=O)[nH]nc5c4cc3-c3ccccc3)cc2)CCC1 [MK2206] (first compound 0.016 µM, partner dose 0.4 µM), the cell count came out at 91%. `O=C(Nc1cc(C(F)(F)F)cc(C(F)(F)F)c1)c1cc(Cl)ccc1O` + O=c1[nH]nc(Sc2ncc([N+](=O)[O-])s2)n1-c1ccc2c(c1)OCCO2 [BI78D3] (first compound 0.016 µM, partner dose 0.2 µM) returned a cell count of 97.3%.

Turning to `O=C(O)[C@@H]1[O][Sb](=[O])([O][Sb]2(=[O])[O][C@H]([C@H](O)CO)[C@H](O)[C@H](C(=O)O)[O]2)[O][C@H]([C@H](O)CO)[C@@H]1O` (some centres undefined) [stibogluconate] + Nc1cccc2c1CN(C1CCC(=O)NC1=O)C2=O [lenalidomide] (first compound 2 µM, partner dose 1 µM), the cell count turned out to be 91.9%. For the compound `Cn1nnc2c(C(N)=O)ncn2c1=O` [temozolomide] + CN(NC(=O)CC(=O)NN(C)C(=S)c1ccccc1)C(=S)c1ccccc1 [STA4783] (first compound 2 µM, partner dose 0.006 µM), the cell count is 32%.

The values above are taken from the supplement of paper PMC4604168 (melanoma cell lines).
